Data taken from patent US20260085122A1.

B1: BGA-056 (Fc fusion)
chain: EVQLLESGGGLVQPGGSLRLSCAASGFTFSDYHMSWVRQAPGKGLEWVSGILNTGLSPTYAATVTGRFTISRDNAKNTLYLSMNSLKPEDTAVYYCAQGYYRATPSQANRGQGTQVTVSS[human IgG1 Fc with C220S (EU numbers) left out]
B2: BGA-174 (Fc fusion)
chain: B1 chain with A75S, S82Q, K87R, P88A, Q115L
B3: BGA-1741 (Fc fusion)
chain: B1 chain with A75S, S82Q, K87R, P88A, Q98K, Q115L
B4: BGA-1742 (Fc fusion)
chain: B1 chain with A75S, S82Q, K87R, P88A, R110W, Q115L
B5: BGA-026 (Fc fusion)
chain: EVQLVESGGGLVQTGDSLRLSCAASPRTFQTYFMGWFRQAPGKEREFVSVINWSGGTSYYKDSVKGRFTISRDNAKNTVYLQMNNLKPEDTAVYYCAAKGSGTYDREGEYDYWGQGTQVTVSS[human IgG1 Fc with C220S (EU numbers) left out]
B6: BGA-154 (Fc fusion)
chain: B5 chain with T14P, D16G, A75S, N85S, K87R, P88A, Q118L
B7: BGA-1542 (Fc fusion)
chain: B5 chain with T14P, D16G, R27F, A75S, N85S, K87R, P88A, Q118L
B8: BGA-1543 (Fc fusion)
chain: B5 chain with T14P, D16G, Q30S, A75S, N85S, K87R, P88A, Q118L
B9: BGA-1545 (Fc fusion)
chain: B5 chain with T14P, D16G, E44G, A75S, N85S, K87R, P88A, Q118L
B10: BGA-1546 (Fc fusion)
chain: B5 chain with T14P, D16G, R45L, A75S, N85S, K87R, P88A, Q118L
B11: BGA-1547 (Fc fusion)
chain: B5 chain with T14P, D16G, F47W, A75S, N85S, K87R, P88A, Q118L
B12: BGA-1548 (Fc fusion)
chain: B5 chain with T14P, D16G, A75S, V79L, N85S, K87R, P88A, Q118L
B13: BGA-2041 (Fc fusion)
chain: EVQLVESGGGLVQPGGSLRLSCAASPRTFQTYFMGWFRQAPGKGLEWVSVINWSGGTSYYKDSVKGRFTISRDNSKNTLYLQMNSLRAEDTAVYYCAAKGSGTYDREGEYDYWGQGTLVTVSS[human IgG1 Fc with C220S (EU numbers) left out]
B14: BGA-2042 (Fc fusion)
chain: B13 chain with G44E
B15: BGA-2043 (Fc fusion)
chain: B13 chain with R27F, G44E
B16: BGA-2044 (Fc fusion)
chain: B13 chain with Q30S, G44E
B17: BGA-2045 (Fc fusion)
chain: B13 chain with R27F, Q30S, G44E
B18: BGA-2046 (Fc fusion)
chain: B13 chain with L45R

Key:
[1] = biological target: human B7H3 (ECD)-His (SinoBiological, 11188-H08H) (human) (UniProt Q5ZPR3); assay: SPR, human B7H3 (ECD)-His
[2] = biological target: human B7H3 (ECD)-His (SinoBiological, 11188-H08H) (human) (UniProt Q5ZPR3); assay: SPR (antigen not named in this example)
native B7H3 on cells [3] = biological target: native B7H3 on cells (UniProt Q5ZPR3); assay: flow cytometry on HEK293 cells, anti-human IgG Fc secondary
native B7H3 on cells [4] = biological target: native B7H3 on cells (UniProt Q5ZPR3); assay: flow cytometry on H358 cells, goat anti-human IgG secondary
[5] = biological target: human B7H3 (ECD)-His (SinoBiological, 11188-H08H) (human) (UniProt Q5ZPR3); assay: SPR, human B7H3 (ECD)-His; remark: listed apart in the source
[6] = biological target: human B7H3 (ECD)-His (SinoBiological, 11188-H08H) (human) (UniProt Q5ZPR3); assay: SPR (antigen printed only as human B7H3)

Binder | KD ratio to BGA-026 chimeric [5] | Kd [5] [nM] | koff [5] [s⁻¹] | kon [5] [M⁻¹ s⁻¹] | KD ratio to BGA-026 chimeric [6] | Kd [6] [nM] | koff [6] [s⁻¹] | kon [6] [M⁻¹ s⁻¹] | further results
B1 | – | – | – | – | – | – | – | – | Kd [1]: 0.614 nM; koff [1]: 0.000107 s⁻¹; kon [1]: 175000 M⁻¹ s⁻¹; KD ratio to BGA-056 chimeric [2]: 1; Kd [2]: 0.1 nM; koff [2]: 0.000103 s⁻¹; EC50 (native B7H3 on cells [3]): 0.0219 µg/mL; EC50 (native B7H3 on cells [4]): 0.452 µg/mL
B2 | – | – | – | – | – | – | – | – | KD ratio to BGA-056 chimeric [2]: 1.1; Kd [2]: 0.11 nM; koff [2]: 0.000106 s⁻¹; kon [2]: 963000 M⁻¹ s⁻¹; EC50 (native B7H3 on cells [4]): 0.289 µg/mL
B3 | – | – | – | – | – | – | – | – | KD ratio to BGA-056 chimeric [2]: 2.06; Kd [2]: 0.206 nM; koff [2]: 0.000171 s⁻¹; kon [2]: 828000 M⁻¹ s⁻¹
B4 | – | – | – | – | – | – | – | – | KD ratio to BGA-056 chimeric [2]: 4.76; Kd [2]: 0.476 nM; koff [2]: 0.0004 s⁻¹; kon [2]: 840000 M⁻¹ s⁻¹
B5 | 1 | 0.262 | 0.000255 | 974000 | 1 | 0.486 | 0.000342 | – | Kd [1]: 1.13 nM; koff [1]: 0.000278 s⁻¹; kon [1]: 247000 M⁻¹ s⁻¹; EC50 (native B7H3 on cells [4]): 0.263 µg/mL
B6 | 0.9 | 0.236 | 0.000201 | 853000 | – | – | – | – | –
B7 | 1.66 | 0.434 | 0.000539 | 1.24e+06 | – | – | – | – | –
B8 | 1.91 | 0.501 | 0.000616 | 1.23e+06 | – | – | – | – | –
B9 | 1 | 0.263 | 0.000236 | 898000 | – | – | – | – | –
B10 | 1.13 | 0.295 | 0.000273 | 924000 | – | – | – | – | –
B11 | 1.01 | 0.265 | 0.000438 | 1.65e+06 | – | – | – | – | –
B12 | 0.87 | 0.227 | 0.000205 | 901000 | – | – | – | – | –
B13 | – | – | – | – | 1.94 | 0.944 | 0.000388 | 411000 | –
B14 | – | – | – | – | 1.7 | 0.825 | 0.00037 | 448000 | EC50 (native B7H3 on cells [4]): 0.357 µg/mL
B15 | – | – | – | – | 5.21 | 2.53 | 0.00105 | 415000 | –
B16 | – | – | – | – | 19 | 9.25 | 0.00496 | 537000 | –
B17 | – | – | – | – | 46.3 | 22.5 | 0.0146 | 646000 | –
B18 | – | – | – | – | 1.26 | 0.612 | 0.000267 | 436000 | –

Where a chain is given by its changes, count along the chain named.
